# Screen size: about 310,000 compounds; about 2,200 (0.71%) showed an effect of 50% or more. Effects have a minus sign here. This is one part of the list.
# Target: human ether-à-go-go-related gene (hERG) potassium channel (human, UniProt Q12809)
# Assay: primary screen, population patch clamp on CHO cells stably expressing hERG
# Sequence of human ether-à-go-go-related gene (hERG) potassium channel (Q12809 whole entry, looked up): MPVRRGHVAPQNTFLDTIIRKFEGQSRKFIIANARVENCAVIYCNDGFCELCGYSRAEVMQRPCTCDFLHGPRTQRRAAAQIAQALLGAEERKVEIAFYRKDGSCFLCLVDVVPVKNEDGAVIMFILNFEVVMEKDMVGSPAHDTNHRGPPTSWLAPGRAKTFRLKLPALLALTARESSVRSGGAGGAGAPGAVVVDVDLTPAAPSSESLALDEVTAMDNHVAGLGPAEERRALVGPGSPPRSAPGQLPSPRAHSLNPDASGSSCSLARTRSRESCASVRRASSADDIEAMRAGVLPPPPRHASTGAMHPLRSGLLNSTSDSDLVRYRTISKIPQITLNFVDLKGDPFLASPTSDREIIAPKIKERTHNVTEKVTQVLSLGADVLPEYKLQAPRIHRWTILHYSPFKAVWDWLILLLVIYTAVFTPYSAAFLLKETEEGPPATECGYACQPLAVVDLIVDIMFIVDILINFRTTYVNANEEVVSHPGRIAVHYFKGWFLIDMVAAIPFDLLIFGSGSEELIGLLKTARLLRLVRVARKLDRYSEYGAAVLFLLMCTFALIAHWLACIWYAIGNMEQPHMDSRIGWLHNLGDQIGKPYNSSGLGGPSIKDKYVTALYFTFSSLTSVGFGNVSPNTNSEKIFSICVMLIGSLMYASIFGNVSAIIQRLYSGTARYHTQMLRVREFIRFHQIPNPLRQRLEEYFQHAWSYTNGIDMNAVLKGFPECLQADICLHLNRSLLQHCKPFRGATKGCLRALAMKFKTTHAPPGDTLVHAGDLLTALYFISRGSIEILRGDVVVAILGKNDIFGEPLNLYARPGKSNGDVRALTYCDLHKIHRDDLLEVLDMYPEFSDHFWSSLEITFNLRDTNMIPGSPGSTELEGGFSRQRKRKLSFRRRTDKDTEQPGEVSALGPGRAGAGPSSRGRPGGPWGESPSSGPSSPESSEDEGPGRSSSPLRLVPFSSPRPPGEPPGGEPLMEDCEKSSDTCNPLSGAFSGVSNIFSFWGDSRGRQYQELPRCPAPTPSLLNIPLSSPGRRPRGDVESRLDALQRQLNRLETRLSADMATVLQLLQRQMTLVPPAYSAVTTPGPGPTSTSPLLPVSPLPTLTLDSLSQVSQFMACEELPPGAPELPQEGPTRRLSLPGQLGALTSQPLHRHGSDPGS
row,Structure (SMILES),"hERG current change (%, negative = inhibition) at 1uM [%]"
1,N#CCCN(C(=O)COC(=O)c1ccc(S(=O)(=O)Nc2ccccc2)cc1)c1ccccc1,5.89
2,CC(C)CN1C(=O)CC(Sc2ccccc2C(=O)O)C1=O (centres unmarked),4.67
3,COc1ccc(C2(CNC(=O)Cc3ccccc3)CCCC2)cc1OC,12.7
4,O=C(CCN1C(=O)c2ccccc2S1(=O)=O)N1CCN(c2ccccc2F)CC1,8.49
5,C/C(=N/NC(=O)CSc1nc2ccccc2n1C)c1ccc(O)cc1,15.3
6,COc1ccc(C(=O)N2CC3(CC(c4cccc(NC(=O)COc5ccc(Cl)cc5)c4)=NO3)C[C@@H]2C(N)=O)cc1 (some centres unmarked),3.45
7,Cc1cc(NC(=O)CCC(=O)N(c2ccccc2)C(C(=O)NC2CCCC2)c2ccncc2)no1 (centres unmarked),9.34
8,Cc1cc(C)nc(NN=C(c2ccccc2)c2ccccc2)n1,-0.703
9,CCCCCn1c(N(C)Cc2ccccc2)nc2c1c(=O)[nH]c(=O)n2C,-2.2
10,Cc1ccccc1C(=O)Oc1cc(N)n(S(=O)(=O)c2ccccc2)n1,2.35
11,CCOc1ccc(S(=O)(=O)N2CCN(C(=O)c3cc([N+](=O)[O-])ccc3N3CCOCC3)CC2)cc1,-3.26
12,C=CCN(CC=C)C(=O)Nc1ccc(OCC)cc1,10.1
13,Cc1[nH]c(=O)c(Cc2ccccc2)c(O)c1C#N,12.5
14,C#Cc1cccc(C(=O)NC2CCCN(C3Cc4ccccc4C3)C2)c1 (centres unmarked),-32.4
15,CCN(CC)c1nc2ccccc2nc1C(C#N)C(=O)NCCCOC (centres unmarked),-0.057
16,CC1(C)CC2(CCO1)OC(=O)CC2C(=O)Nc1cccc2ccccc12 (centres unmarked),17.3
17,CN(c1ccccc1)S(=O)(=O)c1cccc(NC(=O)CN2CCc3ccccc3C2)c1,5.27
18,Cc1cc(C)n2nc(-c3ccccc3)c(-c3ccccc3)c2n1,12.6
19,CN(CCOc1ccccc1)S(=O)(=O)c1ccccc1C#N,3.71

row,Structure (SMILES),"hERG current change (%, negative = inhibition) at 1uM [%]"
1,CCN(C(=O)COC(=O)c1ccccc1NC(=O)c1ccco1)C1CCS(=O)(=O)C1 (centres unmarked),-29
2,COc1cc(CN(C(=S)NCC(=O)N2CCCC2)C2CCCC2)cc(OC)c1OC,8.17
3,FC(F)(F)c1cc(-c2ccc(Cl)cc2)nc(NCc2cccnc2)n1,6.44
4,Cc1ccnc(Nc2nc(-c3ccc(O)cc3O)cs2)c1,9.73
5,CN1CCN(CCCN2c3ccccc3Sc3ccc(C(F)(F)F)cc32)CC1.Cl,8.15
6,CCNC(=O)NC(=O)c1csc([N+](=O)[O-])c1,12.9
7,Cc1cc(C)c(C)c(OCCCCN(C)Cc2ccccc2)c1.O=C(O)C(=O)O,21.1
8,COc1ccc(OC)c(NC(=O)NC2CCCc3ccccc32)c1 (centres unmarked),2.22
9,Cc1ccc(C(=O)CSc2nnc(-c3ccco3)n2CC2CCCO2)cc1 (centres unmarked),7.46
10,Cc1cc2nccc(-c3ccc(OCCCF)cc3)n2n1,-1.78
11,COc1ccc(C(=O)NCCc2nnc3ccc(SCC(=O)N4CCCC4)nn23)cc1,16.2
12,Cc1nn2c3ccccc3n(CC(=O)c3cccs3)c2nc1=O,7.17
13,O=C(Nc1ccccc1)Nc1ccc2ncoc2c1,15.2
14,COc1cc([N+](=O)[O-])ccc1NC(=O)CCN1C(=O)C2C3CCC(C3)C2C1=O (centres unmarked),8.29
15,O=S(=O)(Nc1nccs1)c1ccc(Nc2nnc(-c3ccccc3)c3ccccc23)cc1,15.3
16,CC1CC(C)CN(S(=O)(=O)c2ccc(C(C)(C)C)cc2)C1 (centres unmarked),4.82
17,CC1(C)CC(NC(=O)C(C)(C)Oc2ccc(Cl)cc2)CC(C)(C)N1,15
18,CC1CCCCN1C(=O)c1ccc(NC(=O)c2ccccc2Cl)cc1 (centres unmarked),14.2
19,O=C(OCC(=O)c1cccs1)C1=COCCO1,12.7

row,Structure (SMILES),"hERG current change (%, negative = inhibition) at 1uM [%]"
1,O=C(CSc1nnc(CNC(=O)c2c(F)cccc2Cl)o1)Nc1ccc2c(c1)OCCO2,16.9
2,CCN1CCN(c2ccc(S(=O)(=O)N3CCCC3)cn2)CC1,12.8
3,O=c1oc2ccccc2cc1-c1ccc(O)cc1,13.9
4,Cc1ccc(OCC(=O)NC(=S)Nc2ccc(Br)cn2)cc1C,3.96
5,Cc1ccc(NC(=O)CCC(=O)NNC(=O)C(c2ccccc2)c2ccccc2)c(C)c1,14.2
6,O=C(c1cc2cc(Cl)ccc2[nH]1)N1CCC2(CC1)OCCO2,2.47
7,CC1(c2ccc(OC(F)F)cc2)NC(=O)N(CC(=O)Nc2ccc(S(N)(=O)=O)cc2)C1=O (centres unmarked),17.9
8,Cc1ccc(OCc2nnnn2-c2ccccc2)cc1,3.75
9,Cc1cccc(-c2cc3nc(-c4ccccc4)cc(=O)n3[nH]2)c1,10.9
10,O=C(CSc1nnc2ccccn12)NC(=O)NC1CCCC1,11.8
11,COc1cc2c(cc1OC)C(c1ccc(Cl)cc1)CC(=O)N2 (centres unmarked),14.9
12,CCOc1ccccc1NC(=O)COC(=O)Cc1ccc(-c2ccccc2)cc1,5.37
13,CC(C)NC(=O)c1ccc(S(=O)(=O)N(C)C)cc1,4.29
14,Cc1ccc(S(=O)(=O)/N=C(\CN2CCOCC2)N2CCCC2)cc1,12.1
15,Cc1ccc(OCC(=O)Nc2ccc3oc(=O)ccc3c2)c(C)c1,2.93
16,CCOc1cc(N2CCOCC2)c(OCC)cc1NC(=O)CN1CCSC1=O,1.68
17,COc1ccc(-n2c(SCc3cn4c(C)cccc4n3)nc3ccccc3c2=O)cc1OC,4.37
18,COc1ccc(CCNC(=O)CN(C)S(=O)(=O)c2ccc3nc(C)sc3c2)cc1OC,13

# — PMC4336329 (PLoS ONE, 2015)
